# According to PubChem BioAssay (NCI):
#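 All cell lines were grown in 96-well plates and treated with compound for 48 hours. GI50: concentration for 50% inhibition of growth. The concentration for full growth arrest is given as TGI.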
# Tested on: NCI-H322M lung
# Test: NCI anticancer screen, dose series, 48 h
SMILES,GI50,TGI
O=C(NNc1nc2cc(F)ccc2n2c(CN3CC4(COC4)C3)ccc12)c1cnccn1,475 nM,49800 nM
CCCn1cnc2c(c1=N)C(c1ccc(OC)cc1)c1sc3c(CC)cccc3c1O2 (stereo not drawn),2930 nM,> 49200 nM
CCn1c2ccccc2c2cc(-n3nncc3-c3ccccc3)ccc21,603 nM,> 100000 nM
COc1cc2c(cc1OC)C(Sc1ccc(F)cc1)c1c(nc(N)c(C#N)c1N)O2 (stereo not drawn),1430 nM,2750 nM
